pIC50: −log10 of the molar value. IC50 is the fitted dose that halves viability relative to control wells, and lower means more sensitive; fits outside the tested doses are given as limits. AUC sums up the same curve from the lowest dose to the 256-fold higher top dose: 1 means no effect, lower means more sensitive. Any top dose called inferred was derived from the fitted curves, not read from the paper.
Compound: O=C1NC(=O)/C(=C\c2ccc3nccnc3c2)S1 [AS605240]
Test: Viability of human cancer cell lines after 72 h of drug (GDSC screen)
Conditions: top dose inferred
Protocol: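 Human cancer cell lines in 384-well plates, medium with 10% serum, drug for 72 h over a 256-fold dose range (nine 2-fold or five 4-fold steps up to the top dose). Adherent lines were fixed and stained with the nucleic acid dye Syto60, suspension lines read with resazurin; signal relative to control wells, capped at 0 and 100%. One two-parameter sigmoid per drug and line, fitted in a mixed model over all curves with the slope shared within a line.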

Going from “OE21 (oesophagus, adherent, top dose 20 µM)” to “NCI-H460 (large cell lung carcinoma, adherent, top dose 20 µM)”, the AUC rises from 0.931 to 0.99.

Going from “NCI-H650 (lung adenocarcinoma, adherent, top dose 20 µM)” to “H2373 (mesothelioma, adherent, top dose 20 µM)”, the AUC falls from 0.751 to 0.73.

Going from OV-90 (ovary, adherent, top dose 20 µM) to “SNU-387 (liver, adherent, top dose 20 µM)”, the AUC rises from 0.466 to 0.572.

Going from “NCI-H1048 (small cell lung carcinoma, adherent, top dose 20 µM)” to “NH-12 (neuroblastoma, adherent, top dose 20 µM)”, the AUC falls from 0.818 to 0.817.

First: JIMT-1 (breast, adherent, top dose 20 µM)
Second: NCI-H1770 (non-small cell lung carcinoma, suspension, top dose 20 µM)
The AUC of the first is higher: 0.847 for the first, 0.78 for the second.

Going from “TE-1 (oesophagus, adherent, top dose 20 µM)” to “MIA-PaCa-2 (pancreas, adherent, top dose 20 µM)”, the AUC rises from 0.871 to 0.915.

First: LOXIMVI (melanoma, semi-adherent, top dose 20 µM)
Second: SK-N-DZ (neuroblastoma, adherent, top dose 20 µM)
The AUC of the first is lower: 0.885 for the first, 0.944 for the second.

Going from “Saos-2 (osteosarcoma, adherent, top dose 20 µM)” to “SHP-77 (small cell lung carcinoma, semi-adherent, top dose 20 µM)”, the AUC falls from 0.979 to 0.843.

Compared with “SW620 (large intestine, adherent, top dose 20 µM)”, “NOS-1 (osteosarcoma, adherent, top dose 20 µM)” is lower in AUC: 0.882 for the first, 0.39 for the second.

First: ESO26 (oesophagus, adherent, top dose 20 µM)
Second: KM12 (large intestine, adherent, top dose 20 µM)
The AUC of the first is lower: 0.974 for the first, 0.986 for the second.

Going from “COLO-678 (large intestine, semi-adherent, top dose 20 µM)” to “NCI-H524 (small cell lung carcinoma, suspension, top dose 20 µM)”, the AUC falls from 0.985 to 0.97.

Going from “KYSE-180 (oesophagus, adherent, top dose 20 µM)” to “GRANTA-519 (B-cell lymphoma, suspension, top dose 20 µM)”, the AUC falls from 0.907 to 0.806.

First: CHSA0011 (chondrosarcoma, adherent, top dose 20 µM)
Second: LC-1-sq (lung squamous cell carcinoma, adherent, top dose 20 µM)
The AUC of the first is higher: 0.902 for the first, 0.898 for the second.

Compared with “SW780 (bladder, adherent, top dose 20 µM)”, “M059J (glioma, adherent, top dose 20 µM)” is lower in AUC: 0.971 for the first, 0.878 for the second.

Compared with “C2BBe1 (large intestine, adherent, top dose 20 µM)”, “WM793B (melanoma, adherent, top dose 20 µM)” is higher in AUC: 0.843 for the first, 0.949 for the second.

First: A431 (skin, adherent, top dose 20 µM)
Second: HLE (liver, adherent, top dose 20 µM)
The AUC of the first is lower: 0.765 for the first, 0.989 for the second.

First: NCI-H1781 (lung adenocarcinoma, adherent, top dose 20 µM)
Second: PCI-38 (head and neck, adherent, top dose 20 µM)
The AUC of the first is lower: 0.638 for the first, 0.944 for the second.

Compared with “SK-MEL-28 (melanoma, adherent, top dose 20 µM)”, “D-423MG (glioma, adherent, top dose 20 µM)” is lower in AUC: 0.738 for the first, 0.697 for the second.

Compared with “H513 (mesothelioma, semi-adherent, top dose 20 µM)”, “RPMI-8866 (chronic myeloid leukaemia, suspension, top dose 20 µM)” is lower in AUC: 0.986 for the first, 0.884 for the second.

Compared with “NCI-H2227 (small cell lung carcinoma, semi-adherent, top dose 20 µM)”, “NCI-H2085 (lung adenocarcinoma, adherent, top dose 20 µM)” is lower in AUC: 0.713 for the first, 0.696 for the second.

Going from “OCI-LY-19 (B-cell lymphoma, suspension, top dose 20 µM)” to “JM1 (B-cell lymphoma, suspension, top dose 20 µM)”, the AUC rises from 0.211 to 0.892.

First: EGI-1 (biliary tract, adherent, top dose 20 µM)
Second: D-502MG (glioma, adherent, top dose 20 µM)
The AUC of the first is lower: 0.66 for the first, 0.868 for the second.

Compared with “OMC-1 (cervix, adherent, top dose 20 µM)”, “SK-MEL-2 (melanoma, adherent, top dose 20 µM)” is higher in AUC: 0.896 for the first, 0.946 for the second.

First: PC-3 [JPC-3] (lung adenocarcinoma, adherent, top dose 20 µM)
Second: HDLM-2 (Hodgkin lymphoma, suspension, top dose 20 µM)
The AUC of the first is lower: 0.763 for the first, 0.886 for the second.

Going from “SUP-B15 (lymphoblastic leukaemia, suspension, top dose 20 µM)” to “SW837 (large intestine, adherent, top dose 20 µM)”, the AUC rises from 0.428 to 0.488.

Going from “RCC10RGB (kidney, adherent, top dose 10.24 µM)” to “BFTC-909 (kidney, adherent, top dose 20 µM)”, the AUC rises from 0.931 to 0.973.

First: CAL-62 (thyroid, adherent, top dose 20 µM)
Second: CFPAC-1 (pancreas, adherent, top dose 20 µM)
The AUC of the first is lower: 0.872 for the first, 0.942 for the second.

Going from “NCI-H1694 (small cell lung carcinoma, suspension, top dose 20 µM)” to “ALL-PO (lymphoblastic leukaemia, suspension, top dose 20 µM)”, the AUC falls from 0.875 to 0.41.

Compared with “LS-411N (large intestine, adherent, top dose 20 µM)”, “SW1463 (large intestine, adherent, top dose 20 µM)” is lower in AUC: 0.935 for the first, 0.423 for the second.

In the case of “RCC-AB (kidney, adherent, top dose 20 µM)”, the AUC was 0.822.

“OE21 (oesophagus, adherent, top dose 20 µM)” and “NCI-H460 (large cell lung carcinoma, adherent, top dose 20 µM)” cannot be ordered by pIC50: < 4.70 for the first, < 4.70 for the second.

“NCI-H650 (lung adenocarcinoma, adherent, top dose 20 µM)” and “H2373 (mesothelioma, adherent, top dose 20 µM)” are within 0.2 log units of each other in pIC50: 5.14 for the first, 5.17 for the second.

First: OV-90 (ovary, adherent, top dose 20 µM)
Second: SNU-387 (liver, adherent, top dose 20 µM)
The pIC50 of the first is 0.32 log units higher: 6.01 for the first, 5.69 for the second.

“NCI-H1048 (small cell lung carcinoma, adherent, top dose 20 µM)” and “NH-12 (neuroblastoma, adherent, top dose 20 µM)” are within 0.2 log units of each other in pIC50: 5.01 for the first, 4.89 for the second.

Going from “JIMT-1 (breast, adherent, top dose 20 µM)” to “NCI-H1770 (non-small cell lung carcinoma, suspension, top dose 20 µM)”, the pIC50 rises from 4.78 to 5.14 (0.36 log units).

“TE-1 (oesophagus, adherent, top dose 20 µM)” and “MIA-PaCa-2 (pancreas, adherent, top dose 20 µM)” cannot be ordered by pIC50: < 4.70 for the first, < 4.70 for the second.

First: LOXIMVI (melanoma, semi-adherent, top dose 20 µM)
Second: SK-N-DZ (neuroblastoma, adherent, top dose 20 µM)
The pIC50 of the first is higher: 4.75 for the first, < 4.70 for the second.

Compared with “Saos-2 (osteosarcoma, adherent, top dose 20 µM)”, “SHP-77 (small cell lung carcinoma, semi-adherent, top dose 20 µM)” is higher in pIC50: < 4.70 for the first, 4.92 for the second.

Compared with “SW620 (large intestine, adherent, top dose 20 µM)”, “NOS-1 (osteosarcoma, adherent, top dose 20 µM)” is 1.47 log units higher in pIC50: 4.77 for the first, 6.24 for the second.

“ESO26 (oesophagus, adherent, top dose 20 µM)” and “KM12 (large intestine, adherent, top dose 20 µM)” cannot be ordered by pIC50: < 4.70 for the first, < 4.70 for the second.

“COLO-678 (large intestine, semi-adherent, top dose 20 µM)” and “NCI-H524 (small cell lung carcinoma, suspension, top dose 20 µM)” cannot be ordered by pIC50: < 4.70 for the first, < 4.70 for the second.

First: KYSE-180 (oesophagus, adherent, top dose 20 µM)
Second: GRANTA-519 (B-cell lymphoma, suspension, top dose 20 µM)
The pIC50 of the first is lower: < 4.70 for the first, 5.05 for the second.

“CHSA0011 (chondrosarcoma, adherent, top dose 20 µM)” and “LC-1-sq (lung squamous cell carcinoma, adherent, top dose 20 µM)” cannot be ordered by pIC50: < 4.70 for the first, < 4.70 for the second.

“SW780 (bladder, adherent, top dose 20 µM)” and “M059J (glioma, adherent, top dose 20 µM)” cannot be ordered by pIC50: < 4.70 for the first, < 4.70 for the second.

Going from “C2BBe1 (large intestine, adherent, top dose 20 µM)” to “WM793B (melanoma, adherent, top dose 20 µM)”, the pIC50 falls from 4.77 to < 4.70.

Compared with A431 (skin, adherent, top dose 20 µM), HLE (liver, adherent, top dose 20 µM) is lower in pIC50: 5.15 for the first, < 4.70 for the second.

First: NCI-H1781 (lung adenocarcinoma, adherent, top dose 20 µM)
Second: PCI-38 (head and neck, adherent, top dose 20 µM)
The pIC50 of the first is higher: 5.52 for the first, < 4.70 for the second.

“SK-MEL-28 (melanoma, adherent, top dose 20 µM)” and “D-423MG (glioma, adherent, top dose 20 µM)” are within 0.2 log units of each other in pIC50: 5.23 for the first, 5.29 for the second.

Going from “H513 (mesothelioma, semi-adherent, top dose 20 µM)” to “RPMI-8866 (chronic myeloid leukaemia, suspension, top dose 20 µM)”, the pIC50 rises from < 4.70 to 4.72.

“NCI-H2227 (small cell lung carcinoma, semi-adherent, top dose 20 µM)” and “NCI-H2085 (lung adenocarcinoma, adherent, top dose 20 µM)” are within 0.2 log units of each other in pIC50: 5.26 for the first, 5.33 for the second.

Going from “OCI-LY-19 (B-cell lymphoma, suspension, top dose 20 µM)” to “JM1 (B-cell lymphoma, suspension, top dose 20 µM)”, the pIC50 falls from 6.71 to 4.75 (1.96 log units).

Compared with “EGI-1 (biliary tract, adherent, top dose 20 µM)”, “D-502MG (glioma, adherent, top dose 20 µM)” is lower in pIC50: 5.40 for the first, < 4.70 for the second.

“OMC-1 (cervix, adherent, top dose 20 µM)” and “SK-MEL-2 (melanoma, adherent, top dose 20 µM)” cannot be ordered by pIC50: < 4.70 for the first, < 4.70 for the second.

Going from “PC-3 [JPC-3] (lung adenocarcinoma, adherent, top dose 20 µM)” to “HDLM-2 (Hodgkin lymphoma, suspension, top dose 20 µM)”, the pIC50 falls from 5.02 to < 4.70.

“SUP-B15 (lymphoblastic leukaemia, suspension, top dose 20 µM)” and “SW837 (large intestine, adherent, top dose 20 µM)” are within 0.2 log units of each other in pIC50: 6.10 for the first, 5.94 for the second.

“RCC10RGB (kidney, adherent, top dose 10.24 µM)” and “BFTC-909 (kidney, adherent, top dose 20 µM)” cannot be ordered by pIC50: < 4.99 for the first, < 4.70 for the second.

Compared with “CAL-62 (thyroid, adherent, top dose 20 µM)”, “CFPAC-1 (pancreas, adherent, top dose 20 µM)” is lower in pIC50: 4.76 for the first, < 4.70 for the second.

Going from “NCI-H1694 (small cell lung carcinoma, suspension, top dose 20 µM)” to “ALL-PO (lymphoblastic leukaemia, suspension, top dose 20 µM)”, the pIC50 rises from 4.71 to 6.16 (1.45 log units).

First: LS-411N (large intestine, adherent, top dose 20 µM)
Second: SW1463 (large intestine, adherent, top dose 20 µM)
The pIC50 of the first is lower: < 4.70 for the first, 6.18 for the second.

Work on “RCC-AB (kidney, adherent, top dose 20 µM)” yielded a pIC50 of 4.78.

Source: the supplement of paper PMC4967469
